Values joined by “and” are separate entries in the source; they are usually repeats but may differ in a detail not shown here. Equal values may be shown once.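 Protocol summary: plate cells (96-well), add compound at 5 concentrations, incubate 48 h, interpolate endpoints linearly. Abbreviation: GI50, concentration required for 50% inhibition of growth. TGI denotes the concentration required for complete inhibition of growth.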
System: NCI-H322M lung
Experiment: NCI tumour cell line growth inhibition, 48 h

SMILES | TGI | GI50
Cc1cc(Nc2ccc(NS(C)(=O)=O)cc2)c2c(ccc3nccc32)[nH]1 | 53 µM | –
CC1(C)C2CCC1C(=O)[C@@]1(C=CC(=O)CC1)C2 (stereo not given in full) | > 100 µM | –
Cc1[nH]c(N)nc(=S)c1CCC(=O)O | > 100 µM | –
O=C(c1cccs1)N1CCCN(C(=O)c2cccs2)C1=S | > 100 µM | –
CCCOP(=O)(OCCC)OC(C(F)(F)F)C(F)(F)F | > 100 µM | –
Cc1nc2ccccn2c1NC(=O)NNC(=S)Nc1ccc(F)cc1 | > 100 µM | > 100 µM
O=C(c1ccccc1)c1c(C(F)(F)F)n([O-])c2cc(C(F)(F)F)ccc2[n+]1=O | 3.83 µM | 1.94 µM
C[C@H]1CNC(=O)c2cnn3ccc(nc23)N[C@H](C)c2cc(F)ccc2O1 | 14.5 µM | 1.5 µM
C[C@H]1COCCN1c1cc(C2(S(=O)(=O)C3CC3)CC2)nc(-c2ccc(NC(=S)NCCO)cc2)n1 | 32.4 µM | 0.0422 µM
C=CCN1/C(=C2\SC(=S)N(c3ccc(C)cc3)C2=O)Sc2c1ncn(C)c2=O | > 100 µM | –
CCCCCCCCP(=O)(O)OP(=O)(O)OCC1OC(n2ccc(N)nc2=O)C(O)C1O (stereo not given) | > 100 µM | –
O=c1[nH]c2nccn2c2c1SCCN2 | > 100 µM | –
O=C(CN1CCCCC1)Nc1ccc2c(c1)C1Oc3ccccc3CC1CO2 (stereo not given) | > 100 µM | –
C=C1C(=O)O[C@H]2[C@H]1CC/C(COC(=O)OC/C1=C/CC[C@@]3(C)O[C@H]3[C@H]3OC(=O)[C@@H](CN(C)C)[C@@H]3CC1)=C\CC[C@@]1(C)O[C@@H]21 | 26 µM | 13.3 µM
O=[N+]([O-])c1cc2ccc(N(CCO)CCO)nc2nc1N(CCO)CCO | > 100 µM | –
COC(=O)C(Cc1c[nH]c2ccccc12)NP(=O)(O)OCC1OC(n2cc(Br)c(=O)[nH]c2=O)CC1O (stereo not given) | > 100 µM | –
C1CN(P2(N3CC3)=NP(N3CC3)(N3CC3)=NP(N3CC3)(N3CC3)=N2)CCO1 (stereo not given) | > 100 µM | –
CC(C)C(=O)c1c(C(F)(F)F)n([O-])c2cc(F)c(F)cc2[n+]1=O | 3.32 µM | 1.66 µM
CCOC(=O)C1=C(C)N(NC(N)=O)C2(N)N(NC(N)=O)C(C)=C(C(=O)OCC)C12C(=O)OCC (stereo not given) | > 100 µM | –
O=CN1N=C(c2cccc(Nc3ccnc4cc(Cl)ccc34)c2)CC1c1ccccc1 (stereo not given) | > 100 µM | 0.626 µM
O=C(Nc1ccc(F)cc1)Nc1ccc(Br)c(C(F)(F)F)c1 | 11.5 µM | 2.87 µM
N/N=C(\c1nc2ccc(Cl)cc2[nH]c1=O)C(O)c1ccc(Cl)c(Cl)c1 (stereo not given) | > 100 µM | –
O=c1oc2cc(OC/C(=N/O)c3ccc(F)cc3)ccc2c2ccccc12 | 39 µM | 17.5 µM
COC(=O)C(Cc1ccc(N(C)C)cc1)(NC(=O)c1ccccc1)P(=O)(OC)OC (stereo not given) | > 100 µM | –
C=C(C)[C@H]1C2=CC(C)=C(O2)[C@@H](O)[C@H](C(=C)C)CCC2=C[C@H]1OC2=O | > 100 µM | –

SMILES | TGI | GI50
CN(C)CCCC1(c2ccc(F)cc2)OCc2cc(-c3cc4ccccc4s3)ccc21 (stereo not given) | 3.06 µM | 1.68 µM
CC(C(=O)c1ccccc1)C1(O)C(=O)Nc2ccc(Cl)cc21 (stereo not given) | > 100 µM | –
CNC(=O)SCC(NC(=O)CCC(N)C(=O)O)C(=O)NCC(=O)O (stereo not given) | > 100 µM | –
Cn1c2ccccc2c2cc(N3CCCC3)c3c(c21)C(=O)N(c1ccccc1)C3=O | > 100 µM | –
N#Cc1cc(Sc2ccc(N)c(C#N)c2)ccc1N | 58.3 µM | –
CN1Cc2cc(O)c(O)cc2C(O)C1 (stereo not given) | > 100 µM | –
COc1ccc(C(=O)CC2=Nc3nnc(CCCCCCCc4nnc5n4C(=O)C(CC(=O)c4ccc(OC)cc4)=N5)n3C2=O)cc1 | > 100 µM | –
C=C1C(=O)O[C@H]2[C@H]1CC/C(COC(=O)CCCc1c[nH]c3ccccc13)=C\CC[C@@]1(C)O[C@@H]21 | 27.8 µM | 13.8 µM
C=C1SC(=Nc2ccccc2Cl)N(C(=O)c2sc3ccccc3c2Cl)C12CCCCC2 | > 100 µM | 9.34 µM
Cc1cccc(C)c1N1C(=O)C(=O)C(c2nc3ccccc3s2)/C(=N/NC(=O)c2ccccc2O)C1=O (stereo not given) | > 100 µM | –
CCOC1NC(=O)Oc2cc3ccccc3cc21 (stereo not given) | > 100 µM | –
O=C(Nc1ccccc1Cl)c1ccc([N+](=O)[O-])cc1 | > 100 µM | –
O=C(N/N=C\c1cccc2ccccc12)Nc1cccc2ccccc12 | > 100 µM | –
NCCNC(=O)c1cccc2cc3ccccc3nc12 | 11.6 µM | –
CO/N=C(\C([O-])=N\[n+]1cnn(CC(=O)OC(C)(C)C)c1)c1csc(NC(c2ccccc2)(c2ccccc2)c2ccccc2)n1 | > 10 µM | –
COC1=CC(=O)C=C(OC)C1=O | 25.6 µM | –
Cc1cc(C)c(C(=O)O)c(SSc2cc(C)cc(C)c2C(=O)O)c1 | > 100 µM | –
CC1CC(C)C2OC2(C)C[C@H](C)C(=O)NC(C)C(=O)N(C)[C@H](Cc2c(Br)[nH]c3ccccc23)C(=O)N[C@@H](c2ccc(O)cc2)CC(=O)O1 (stereo not given in full) | 60.8 µM | –
Cc1nc(/C=C2\C(=O)C=Cc3ccccc32)c(O)o1 | > 100 µM | –
NC(=O)CC(N)C(=O)NC(Cc1ccccc1)C(=O)NC(Cc1ccccc1)NC(=O)C(Cc1c[nH]c2ccccc12)C(=O)O (stereo not given) | > 100 µM | –
N#CC(C#N)=Cc1ccc(CP(=O)(O)O)cc1 | > 100 µM | –
COc1cc2cc(C(=O)N3CC(CCl)c4ccc(N(C)C)cc43)[nH]c2c(OC)c1OC (stereo not given) | 0.529 µM | –
Cc1c(Cl)cccc1NC(=O)/C=C/c1ccccc1 | > 100 µM | –
OC12c3ccccc3C1CCCCCCCCCC21OCCO1 (stereo not given) | > 100 µM | –
CCN(CC)CCn1c(=O)c2c(C)c3oc4ccccc4oc3c(C)c2c1=O | > 100 µM | –

SMILES | TGI | GI50
CCCN(CCC)C(=O)c1nc(N)nc(-c2ccc(OC)cc2)c1-c1ccc(OC)cc1 | > 100 µM | –
C=CCOC(OCC=C)/C(Br)=C/C | > 100 µM | –
O=C(C#Cc1ccccc1)C1=Cc2ccccc2OC1 | 28.7 µM | –
CCCCc1ccc(Nc2nc(Cl)c3ccn(C4CC(Oc5ccc(C)cc5)C(COc5ccc(C)cc5)O4)c3n2)cc1 (stereo not given) | > 46.4 µM | –
C#CC1(O)CCC2[C@@H]3CCc4cc(Oc5nc(F)nc(-c6c7ccccc7c(SCC)n6CCC)n5)ccc4C3CC[C@@]21C (stereo not given in full) | > 100 µM | –
CCC(CC)(CO)CNc1cc(Cl)nc(N)n1 | > 100 µM | –
COC(=O)C1CC(OC(C)=O)C=C2C(=O)CCC21 (stereo not given) | > 100 µM | –
Cc1nc2ccc(F)cc2c(Cl)c1CCCl | > 100 µM | –
C[C@]12CC[C@H]3[C@@H](CC4SC(N)=NC45C/C(=N/NC(N)=O)CC[C@]35C)[C@@H]1CCC2=O (stereo not given in full) | 3.55 µM | 1.77 µM
O=C1C=Cc2c1ccc1ccccc21 | > 100 µM | 30.5 µM
CCCCc1ccc(Nc2nc(Cl)c3c(ncn3C3CC(Oc4ccc(C)cc4)C(COc4ccc(C)cc4)O3)n2)cc1 (stereo not given) | > 100 µM | –
NC(N)=NC(N)=NCCCc1ccco1 | > 500 µM | 189 µM
COC(=O)c1c2c(cc3c1CC1(Cc4cc5c(c(C(C)=O)c4C1)CCCC5)C3)CCCC2 (stereo not given) | > 100 µM | –
C=CCOC(=O)N1c2ccc(O)cc2[C@@]23O[C@@]24[C@@H]1C#C/C=C\C#C[C@]3(O)C(OC)(OC)C[C@@H]4C | > 100 µM | –
CCOC(=O)C12C(C(=O)OC)=C(C)N(NC(=O)Nc3ccccc3)C1(N)N(NC(=O)Nc1ccccc1)C(C)=C2C(=O)OC (stereo not given) | > 96.1 µM | –
C=C1C(=O)O[C@H]2[C@H]1CC/C(Cn1cc(-c3ccc(F)cc3)nn1)=C\CC[C@@]1(C)O[C@@H]21 | 17.2 µM | 4.39 µM
CN(CCCNC(=O)c1nn(C)c2c1Cc1ccccc1-2)CCCNC(=O)c1nn(C)c2c1Cc1ccccc1-2 | 29.7 µM | –
CCC1(OC(=O)CN)C(=O)OCc2c1cc1n(c2=O)Cc2cc3ccccc3nc2-1 (stereo not given) | 0.921 µM and 0.494 µM | 0.218 µM
COC(=O)c1c2c(c(C)[n+]([O-])c1C)C(=O)C=C(NCc1cccc(Cl)c1)C2=O | 1.51 µM | 0.36 µM
Cc1cc(S(=O)(=O)Nc2nncn2-c2ccc(Cl)cc2)c(S)cc1Cl | > 10 µM | –
COC(=O)[C@@H](C)[C@H]1CC[C@@](C)(CCC2=C(C)CC3C=C(C)CCC3C2(C)C)OO1 (stereo not given in full) | 3.1 µM | –
COc1cc(C2C3=C(CCCC3=O)N(c3ccc(C)cc3)C3=C2C(=O)CCC3)c([N+](=O)[O-])cc1OC | > 100 µM | –
CC(=O)NC(CSC1=C2NC(=O)\C=C/C=C/C=C\C(C)C(O)CC(=O)/C(C)=C\CC(O)/C=C/C(C)C(O)C(C)C=C(C)C(=O)c3c(O)c(C)cc(c3C1=O)C2=O)C(=O)O (stereo not given) | > 100 µM | –
CC(=O)C(C(C)=O)[C@@H]1OC(C)(C)O[C@@H]1[C@H]1COC(C)(C)O1 | > 100 µM | –
COC(=O)C1=C(O)CCCC(C2CCCCC(=O)C2C(=O)OC)=C1 (stereo not given) | > 100 µM | –

SMILES | TGI | GI50
Cc1ccc2nc3cc(C)c(=O)cc-3sc2c1 | > 100 µM | –
COC1=C(C)C(=O)C2=C(C1=O)C1C3CC4=C(C(=O)C(OC)=C(C)C4=O)C(CNC(=O)C(C)O)N3C(C#N)C(C2)N1C (stereo not given) | 0.63 µM | –
C#C[C@@]1(O)CCCC2=CC3(CC[C@]21C)SCCS3 | > 100 µM | –
O=C(O)/C(=C\c1ccc(O)cc1)c1cccc2ccccc12 | > 100 µM | –
COC(=O)Nc1nc2ccc(C(=O)c3ccccc3)cc2[nH]1 | > 100 µM | 0.583 µM
O=C(OC1CN2CCC1CC2)N(c1ccccc1)c1ccccc1 (stereo not given) | > 100 µM | –
Nn1c(=O)[nH]c2ncn(Cc3ccccc3)c2c1=O | > 100 µM | –
Cc1ccc2c(c1)C(=O)c1c-2c(OCCCN(C)C)nc2ccccc12 | 12.3 µM | 2.36 µM
O=C(c1cccnc1)N1N=C(c2ccccc2)CC1(O)c1cc(F)c(Cl)cc1Cl (stereo not given) | > 100 µM | –
COc1cc(Cc2cnc(N)nc2N)cc(OC)c1OCCCNc1ccc([N+](=O)[O-])cc1 | 49.5 µM | –
CN(C)CCOc1ccc(-c2c(Oc3ccccc3)c(=O)oc3ccccc23)cc1 | 18 µM | –
COc1cc(C(=O)O[C@H](C(=O)NCCN(C)CCNC(=O)[C@@H](OC(=O)c2cc(OC)cc3c(C)cccc23)[C@]2(C)CO2)[C@]2(C)CO2)c2cccc(C)c2c1 | 0.828 µM | 0.255 µM
COc1ccc(/C(C#N)=C/c2cc(OC)c(OC)c(OC)c2)cc1 | > 100 µM | 46.7 µM
COc1cccc2cc(C(=O)Nc3ccccc3)c(=N)oc12 | > 100 µM | –
O=C(C/C(=N/O)C(F)(F)F)c1cccs1 | > 100 µM | –
COc1ccc2c(c1)NC1(O)c3ccccc3C(=O)C21O (stereo not given) | > 100 µM | –
CCOC(=O)[C@@]1(C)CC(O)C(=O)N1C (stereo not given in full) | > 100 µM | –
COC(=O)CCNc1c2ccccc2nc2cccc([N+](=O)[O-])c12 | 0.788 µM and 0.979 µM | 0.0958 µM and 0.118 µM
COC(=O)/C(C#N)=C(\N)C(Cl)(Cl)Cl | 18.2 µM | –
CC(=O)NNc1nc(C)c(C(=O)/C=C/c2ccc(Cl)cc2)s1 | > 100 µM | –
C/C(CC(=O)Nc1ccccc1C)=N/NS(=O)(=O)c1ccc(C)cc1 | > 100 µM | –
CCOc1ccc(NCC2CC/C(=C\c3ccccc3OC)C2=O)cc1 (stereo not given) | 29.3 µM | –

Source: PubChem BioAssay (NCI)
